Assay results taken from the supplement of paper PMC12355420.
Structures can show the parent of a compound that is named as a salt. The list shows a part of the results. Cut-off read from the data, not from the text of the source: active = 0.5 or less and inactive = the rest. Single values are uncertain, as repeats are few or missing.

Columns and labels:
Conditions in all cases: 50 µM; 24 h
[1] = tested on: HeLa VPS33A R498W KI + HA-SDC1-FLAG; assay: relative GAG core protein HA-SDC1 amount per cell number vs DMSO (fraction of DMSO); higher = more SDC1 (GAG core protein);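 note: HA-SDC1 level read out by In-Cell Western staining with an anti-HA antibody against the N-terminal tag, screening FDA-approved library drugs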
[2] = tested on: HeLa VPS33A KO + NLuc-VPS33A R498W; assay: relative mutant VPS33A R498W amount (NanoLuc luminescence) vs DMSO (fraction of DMSO); higher = higher mutant VPS33A level;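 note: screen of an FDA-approved drug library, NanoLuc luminescence read after lysing the treated cells, taken as a measure of mutant VPS33A protein stability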
[3] = tested on: HeLa VPS33A reporter cells; assay: relative cell viability (CellMask signal) vs DMSO (fraction of DMSO); HeLa model of a glycosaminoglycan (GAG) storage disease; KI is knock-in and KO knock-out; SDC1 is syndecan 1; higher = less cytotoxic;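 note: primary screen of an FDA-approved drug library in HeLa reporter cells in 96-well format, CellMask signal normalized to DMSO-treated wells set as 1, under 0.5 deemed highly cytotoxic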

Structure (SMILES) | relative GAG core protein HA-SDC1 amount per cell number [1] | relative mutant VPS33A R498W amount [2] | relative cell viability [3]
CN1C2CCC1CC(OC(=O)C(O)c1ccccc1)C2 (centres undefined) [Homatropine Bromide] | inactive: 0.672 | 0.786 | 
O=C(O)c1cc(=O)c2c(OCC(O)COc3cccc4oc(C(=O)O)cc(=O)c34)cccc2o1 [Cromolyn sodium] | inactive: 0.816 | 1.39 | 1.05
CC1(C)CCC[C@](C)([C@H]2CC[C@]3(C)[C@@H]2[C@H](O)C[C@@H]2[C@@]4(C)CC[C@H](O)C(C)(C)[C@@H]4[C@H](O)C[C@]23C)O1 [Panaxtriol] | inactive: 0.772 | 1.31 | 0.968
c1ccc2[nH]c(-c3cscn3)nc2c1 [Thiabendazole] | inactive: 0.685 | 0.817 | 1.52
C[C@H](C(=O)O)c1cccc(C(=O)c2ccccc2)c1 [(S)-Ketoprofen] | inactive: 0.82 | 0.866 | 
O=C(CCCCCCC(=O)Nc1ccccc1)NO [Vorinostat (SAHA, MK0683)] | inactive: 0.704 | 6.58 | 0.752
C=C(c1ccc(C(=O)O)cc1)c1cc2c(cc1C)C(C)(C)CCC2(C)C [Bexarotene] | active: 0.369 | 1.46 | 1.07
CCOC(CN1CCN(CC(C)C(=O)c2ccccc2)CC1)c1ccccc1 (centres undefined) [Eprazinone 2HCl] | inactive: 0.548 | 0.469 | 0.849
CCOC(=O)N1CCC(=C2c3ccc(Cl)cc3CCc3cccnc32)CC1 [Loratadine] | active: 0.474 | 0.0177 | 
CC(C(=O)O)c1cccc(C(=O)c2ccccc2)c1 (centres undefined) [Ketoprofen] | inactive: 0.644 | 0.859 | 
CC(C)CN(C[C@@H](O)[C@H](Cc1ccccc1)NC(=O)O[C@H]1CO[C@H]2OCC[C@H]21)S(=O)(=O)c1ccc(N)cc1 [Darunavir Ethanolate] | inactive: 0.723 | 0.916 | 
O=C(Oc1ccccc1C(=O)O)c1ccccc1O [Sasapyrine] | inactive: 0.752 | 1.08 | 0.97
Nc1ccccc1NC(=O)c1ccc(CNc2nccc(-c3cccnc3)n2)cc1 [Mocetinostat (MGCD0103, MG0103)] | inactive: 0.578 | 0.717 | 0.521
Nc1nc(O)c2ncn(CCC(CO)CO)c2n1 [Penciclovir] | inactive: 1.01 | 1.5 | 0.857
NC(=O)C(c1ccccc1)(c1ccccc1)[C@@H]1CCN(CCc2ccc3c(c2)CCO3)C1 [Darifenacin HBr] | active: 0.28 | 0.675 | 
C[S+](CC[C@H](N)C(=O)[O-])C[C@H]1O[C@@H](n2cnc3c(N)ncnc32)[C@H](O)[C@@H]1O (some centres undefined) [Ademetionine] | inactive: 0.881 | 1.39 | 0.992
C[C@]1(OC(=O)/C=C/c2ccccc2)C[C@@H](O)[C@]2(O)C=CO[C@@H](O[C@@H]3O[C@H](CO)[C@@H](O)[C@H](O)[C@H]3O)[C@@H]21 [Harpagoside] | inactive: 0.772 | 1.23 | 1.04
CC1CCc2c(N3CCC(O)CC3)c(F)cc3c(=O)c(C(=O)O)cn1c23 (centres undefined) [Nadifloxacin] | inactive: 0.997 | 1.27 | 0.932
Cc1cc2c(C(N)=O)cccc2n1-c1nc2c(c(NCc3ccccc3)n1)COCC2 |  |  | 0.262
CCC1=C[C@@H]2CN(C1)Cc1c([nH]c3ccccc13)[C@@](C(=O)OC)(c1cc3c(cc1OC)N(C)[C@H]1[C@@](O)(C(=O)OC)[C@H](OC(C)=O)[C@]4(CC)C=CCN5CC[C@]31[C@@H]54)C2 [Vinorelbine] |  |  | 0.00418
O=C(Nc1ccccc1)OCC(CN1CCCCC1)OC(=O)Nc1ccccc1 (centres undefined) [Diperodon HCl] |  |  | 0.116
COc1cc2c(Oc3ccc4[nH]c(C)cc4c3F)ncnc2cc1OCCCN1CCCC1 [Cediranib (AZD217)] |  |  | 0.00517
CC1=CC(=O)c2ccccc2C1=O [Menadione] |  |  | 0.00699
CC1(COc2ccc3c(c2)ncn3-c2ccc3cccc(N4CCC(N)CC4)c3n2)COC1 |  |  | 0.00572
C[C@H]1[C@H](C)CC[C@]2(C(=O)O)CC[C@]3(C)C(=CC[C@@H]4[C@@]5(C)CC[C@H](O)C(C)(C)[C@@H]5CC[C@]43C)[C@H]12 [Ursolic acid] |  |  | 0.0085
CC1(C)[C@H](C(=O)O)N2C(=O)C[C@H]2S1(=O)=O [Sulbactam] | inactive: 0.952 | 1.42 | 
CC(C)CN(C[C@@H](O)[C@H](Cc1ccccc1)NC(=O)O[C@H]1CO[C@H]2OCC[C@H]21)S(=O)(=O)c1ccc(N)cc1 [Darunavir] | inactive: 1.16 | 1 | 
